From article PMC12040169 (PLOS Biology, 2025)
This is one part of the list.

system: T1, C. trachomatis L2/434/Bu expressing GFP (CTL2-GFP); design: species or system HeLa; C. trachomatis total inclusion area by high-content imaging, normalised to DMSO; conditions: total inclusion area; 28.5 h, 10 µM; inhibitor
T1 construct: L2/434/Bu GFP intracellular growth in HeLa cells
Summary of the method: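 Bulk GFP and resorufin signals were read first. Wells were then fixed, stained with Hoechst and imaged to detect GFP inclusions and host nuclei. MICs followed the previously described calculation.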

| Structure (SMILES) | % of control remaining |
| --- | --- |
| CC1CN(C(=O)Nc2ccccc2F)CC(C)O1 (centres unmarked) [CBK004990] | 63.23 |
| COc1ccc(Cc2c(C)nc3c(C(=O)NCC4COc5ccccc5O4)cnn3c2C)cc1 (centres unmarked) [CBK162179] | 105.083 |
| O=C1C(NCCO)=C(Nc2cccc(Cl)c2)C(=O)c2ccccc21 [CBK264323] | 35.6606 |
| Clc1ccc(COc2nccnc2OC2CCN(Cc3ccncc3)CC2)cc1Cl [CBK153792] | 65.072 |
| COC(=O)CC[C@H]1CNC(=O)[C@@H]2[C@@H](CCN2C)N1C [CBK289020] | 105.453 |
| O=C(COc1ccccc1[N+](=O)[O-])Nc1ccc(Br)cc1C(=O)O [CBK266008] | 137.03 |
| Cc1nc(C)c(CCC(=O)NC2CCCc3ccccc32)c(=O)[nH]1 (centres unmarked) [CBK295600] | 93.7575 |
| N#C/C(=C\c1ccc(N2CCOCC2)cc1)c1nc2ncc(Br)cc2[nH]1 [CBK266294] | 119.409 |
| Clc1cc(Cl)c2[nH]c3c(c2c1)CCc1nonc1-3 [CBK025929] | 88.2573 |
| CC(C)(C)OC(=O)N1CCN(c2nccnc2Cl)CC1 [CBK013554] | 87.4275 |
| Cc1nn(C)c(N2CCNCC2)c1NC(=O)COc1ccccc1 [CBK050249T] | 44.1655 |
| Cc1cc(CN2CCOCC2)oc1C(=O)O [CBK263239C] | 71.7373 |
| Cc1ccccc1S(=O)(=O)Nc1cc(CN2C[C@H](C)NC[C@H]2C)c2occc2c1 [CBK107210T] | 75.3897 |
| O=C(O)C1CCCCC1C(=O)NCCCN1CCCC1=O (centres unmarked) [CBK286914] | 100.523 |
| CC(=O)NCC1CC(c2ccc(OC(C)=O)c(Cl)n2)=NO1 (centres unmarked) [CBK010396] | 69.4141 |
| O=C(NCc1ccncc1)c1cc(-c2ccc(Cl)cc2)on1 [CBK116559] | 114.565 |
| Cn1cc(C2CCCCCN2S(=O)(=O)c2ccc3[nH]c(=O)[nH]c(=O)c3c2)cn1 (centres unmarked) [CBK286406] | 81.2406 |
| Cc1ccc(NC(=O)N(Cc2ccc(-c3ccccc3)cc2)CC(C)(C)CN)c(C)c1 [CBK002428C] | 49.4358 |
| CCc1nc2ccc(C(=O)NC3CCN(Cc4ccccc4)CC3)cn2c1N(C)CC [CBK145488] | 95.66 |
| CCOc1ccc(CC(=O)N2CCCc3c(cnn3C)C2)cc1 [CBK285325] | 102.891 |
| Cc1ccc(CN(C2CCN(C)CC2)S(=O)(=O)c2ccccc2F)cc1 [CBK160444T] | 47.0174 |
| CN1CCN(CCOC(=O)NCc2ccnc3ccccc23)CC1 [CBK200148] | 85.2533 |
| O=c1[nH]c(/C=C\c2cccc(OCCOc3ccccc3)c2)c([N+](=O)[O-])c(=O)[nH]1 [CBK266840] | 75.0511 |
| CC(=O)N1Cc2cc(C)ccc2OC2(CCCN(CC3CC3)C2)C1 (centres unmarked) [CBK285104] | 112.394 |
| O=S(=O)(c1ccc(-c2ccccc2)cc1)n1ccc2cc(N3CCN(Cc4ccccc4)CC3)ccc21 [CBK001388C] | 48.6785 |

| Structure (SMILES) | % of control remaining |
| --- | --- |
| CC(=O)NCCN1CC[C@H]2CN(C(=O)COc3ccccc3)CC[C@H]2CC1=O [CBK288783] | 108.099 |
| CC(C)(C)c1cc(-n2c(-c3cccnc3)nc3ccccc32)cc(C(C)(C)C)c1O [CBK262907] | 79.7266 |
| COc1ccc(CC(=O)N2CCC(c3cc4ncccc4[nH]3)CC2)cc1 [CBK283386] | 86.0334 |
| COc1cc(NC(=S)NCc2ccc(S(N)(=O)=O)cc2)cc(OC)c1 [CBK264935] | 105.879 |
| CN(C)CCN(Cc1ccccc1)Cc1ccc(C(F)(F)F)cc1 [CBK261927] | 85.8943 |
| Cc1nc(NS(=O)(=O)c2ccccc2)sc1NC(=O)Nn1cnnc1 [CBK266699] | 112.425 |
| CC(CN(C)C(=O)c1nc(=O)[nH][nH]1)Oc1ccc(Cl)c(Cl)c1 (centres unmarked) [CBK306471] | 55.4697 |
| COc1ccc(NC2=N[C@H]3[C@@H](O)[C@H](O)C[C@H](C(=O)N(C)Cc4ccccc4)[C@H]3S2)cc1 [CBK288950] | 94.4165 |
| CC(=O)Nc1ccc(NCc2nc(CC(C)C)no2)c(C(F)(F)F)c1 [CBK305799] | 64.1117 |
| O=C(C1CCN(S(=O)(=O)c2ccccc2)CC1)N1CCN(Cc2ccc3c(c2)OCO3)CC1 [CBK265713] | 142.416 |
| O=C(CN1CCn2ccnc2C1)N(Cc1ccccc1F)C1CC1 [CBK303995] | 74.1462 |
| COc1cccc(-n2c(C)nnc2C2(OC(C)=O)CCN(CCc3ccccc3)CC2)c1 [CBK016371] | 100.646 |
| Cc1ccc(C(=O)N/C(=C\c2cccc([N+](=O)[O-])c2)c2n[nH]c(=S)[nH]2)cc1 [CBK263114] | 102.306 |
| CCOC(=O)CCC(=O)n1c2ccccc2c2ccccc21 [CBK001170] | 98.3018 |
| O=C(CCN1CCCC12CCc1[nH]c3ccccc3c1C2)c1ccc(F)cc1 (centres unmarked) [CBK084593] | 64.1569 |
| CSc1ccc(-c2cnc(N)c3ncccc23)cc1 [CBK067584] | 70.8479 |
| OCCN1CC2(CCN(Cc3ccc4ccccc4c3)CC2)c2ccccc21 [CBK131529] | 101.026 |
| O=C(NC1CC1)C1(Cc2ccccc2-c2ccncc2)CCOCC1 [CBK284785] | 89.8759 |
| C[C@@H](Nc1cncc(-c2cccc(N)c2)n1)c1ccccc1 [CBK065273] | 108.613 |
| C[C@]12CN(CCc3ccccc3)C[C@H]1NC(=O)c1ccccc1C2=O [CBK284704] | 108.719 |
| O=C1CC(N2CCN(Cc3ccc4c(c3)OCO4)CC2)C(=O)N1c1ccc(Cl)cc1 (centres unmarked) [CBK074402] | 86.8634 |
| Nc1ncccc1OCCOc1cccnc1N [CBK022067] | 69.8701 |
| COc1ccc2oc(C(=O)N(C)CC(C)OC)c(C)c2c1 (centres unmarked) [CBK282037] | 94.4945 |
| O=C(CSCc1c(F)cccc1Cl)Nc1ccc(S(=O)(=O)N2CCCCCC2)cc1 [CBK268497] | 89.4065 |
| CCCCN(C)c1nccnc1-c1cccc(O)c1 [CBK037652] | 93.7539 |
